Measured values reported in patent US20170095573A1, “METHODS AND COMPOSITIONS FOR TREATING ALLERGY AND INFLAMMATORY DISEASES” (Baylor Research Institute, priority 2014, published 2017).

Test system: blood mDCs
Assay: TSLP-induced OX40L and CD86 expression on mDCs
Settings: mDCs cultured with TSLP; 20 ng/mL TSLP, 10 μg/mL conjugate or antibody, 100 ng/mL pam3, 48 hours in Example 6
Experimental: (FIG. 4A) mDC staining and (FIG. 4B) compiled results.
Allergens and respiratory viruses induce epithelial cells to secrete TSLP that can upregulate OX40L expression on DCs. OX40L play a pivotal role in the DC-induced elicitation of allergic Th2 type inflammatory T cell responses. Thus, it was tested whether anti-Dectin-1-Pam3 could suppress the TSLP-induced OX40L expression on mDCs (FIG. 4).
Next, mDCs were first purified from a buffy coat then cultured with 20 ng/mL TSLP and either 100 ng/mL pam3, 10 μg/mL of anti-dectin-1 or 10 μg/mL of αDectin-1-pam3. Cells were harvested and stained after 48 hours.

CCCCCCCCCCCCCCCC(=O)N[C@@H](CSCC(COC(=O)CCCCCCCCCCCCCCC)OC(=O)CCCCCCCCCCCCCCC)C(=O)N[C@@H](CO)C(=O)N[C@@H](CCCCN)C(=O)N[C@@H](CCCCN)C(=O)N[C@@H](CCCCN)C(=O)N[C@@H](CCCCN)C(=O)O (mixture of isomers) [Pam3, N-Palmitoyl-S-[2,3-bis(palmitoyloxy)-(2RS)-propyl]-[R]-cysteinyl-[S]-seryl-[S]-lysyl-[S]-lysyl-[S]-lysyl-[S]-lysine]
TSLP-induced OX40L expression on mDCs: could not alter the TSLP-induced OX40L expression
